Test results as given in PMC2879411, “Molecular Basis for the Dual Function of Eps8 on Actin Dynamics: Bundling and Capping” (PLoS Biology, 2010).

Molecular target: filamentous actin (F-actin), rabbit skeletal muscle (rabbit, UniProt P68135)
Experiment: negative-stain electron microscopy with helical 3D reconstruction; Eps8(535–821) on F-actin, 2% uranyl acetate, iterative helical real space refinement, difference map against undecorated F-actin
Details: both partners purified

B1: Eps8([…]) (domain or fragment)
chain: not shown
For B1, the “stoichiometry N” value was 1.
